# From the supplement of paper PMC12632987
# Whole data set: some 2,300 sequences, median “median log2 fold change of GCK-ALFA target abundance (FLAG IP / Myc IP barcode read proportion)” near 0.095, cut for the lowest 2% near -0.47. The list shows a part of the results.
# B1: LC3A_28_1051 (protein)
# chain: METEEALEAALAEARAAAAAGEEALITLTIDENDTEEDVELVLETMEEIAEIGKTLPSVTIIVDVDHKNKEEVTKKIADKGEELEKKYPNVTVIIALSEE
# B2: LC3A_3_1554 (protein)
# chain: MEELKEELLKELKEAGKSEEVLEAAKRAFDALIERGYYEAAKTLAEELREMLDLPDEIVLDFLNDVLELVETEDLDEEELIEEIKRLARIAKNEAEIEEL
# B3: LC3A_3_1656 (protein)
# chain: MEELIKETLEYLRKKGKSEEVLEAARAAMEALKEKGYEEALKTFAELLKELEHLSDEILLWFAEEVLRLVETEDINEEEMKERIKEIARTAKNAEEIEEL
# B4: LC3A_28_1283 (protein)
# chain: SELDESIEKALEEAKKAKEAGESAVIEIHIPGGATQEEIEKVIETLYEIAEILKDVKDQAIVISIDSGVKQEHIDKIADAAEEIEKKYPNVTVIIALDED
# B5: LC3A_127_196 (protein)
# chain: EKQKLLDEAIEIAEKLSELLDKPDFDLEEAKKLAEELKKVLEKLVKLDPSFQPALEDAEQLLELLEKMETLDEAEREEAREHMSMLVEGIIIELLSLSLK
# B6: LC3A_free_8_2477 (protein)
# chain: KREELVKKIVEGLDELEEKVREKAKELGLDELDILDLELLIGSAIAEVISLSDESPEEILKALKEGLEEIIEEAAEISEELAKVVKEESEKILKEAEKLM
# B7: LC3A_141_368 (protein)
# chain: TTLTITTDIGRASLDEIVAKMDELEEAALAAHRELGGGRVRVTVTITVKNLKTGETTTITEEFEADEEELELIMEGVLIEVASYALTEDAEVTVTVTLEG
# B8: LC3A_3_1881 (protein)
# chain: YDEEVKEAIEELKKAGASEETIEAFKKAAELLKERGYYEALKTLIEEVKELLSLSDELLLDFLEEVLDVIENEDLNEEELIKRIKEIARLTLNEGEIIEL
# B9: LC3A_3_1398 (protein)
# chain: MEELKKKILETLKKFGASEEVLKEAEKVLKALEKKGYEKAIKELLKEVEKLKNASDEILLDFFKDVLNYVENNDDSEEEVVKFIKEEARIALNEEEIEEL
# B10: LC3A_free_39_2192 (protein)
# chain: SAAERKAARDEILALAAEEGEEAKELAEELIELIGDELERLKELLELLKEAKEAGVDVKELLKEALALAKELKAQGKSREEIFEEVKALIRDRINLIPID
# B11: LC3A_132_307 (protein)
# chain: GEELAKKAIKVAKEALELAKTDDTKKEEILKLLDELKKLLEELAKKASPELAAKTFKEVMDILLEISRIASKKGWDEVADEAFALAALAAQLAADAEKKL
# B12: LC3A_3_1603 (protein)
# chain: SAELVEALLARLEAAGFPPEVLAAARELLEALAAKGFEEAARTAAEELLALRDAPPEVLLATLAELLEIVKTEDLDEEEVIERIREEFRVAALEGEIEEL
# B13: LC3A_free_46_2368 (protein)
# chain: PRAEIDIDFLVETKEKAEKLAKELTAAIKAIAAEHGVKVEIKVEITKNPDGTYALKINITLEADDLETLQAAVNAIIDAIDKIAEEFNVSYIISVEIIDE
# B14: LC3A_28_959 (protein)
# chain: SALDKELEATLAAAKAAAAAGKAEVFTINVPGTANEEDIEKVIKALKEIAEILKDVKGSAIIINVDAGVKQEHIDKLADAAEEIEKKYPNITVIIALDEE
# B15: LC3A_3_1721 (protein)
# chain: MEEIRERALAVLREKGASPETIAAVAALLDALAERGFEEAAETLLEKLEELEGVSSEDLLAALQDLLHLVTEEDLSEEEVIAAIEEEFRVLKEALEIEEL
# B16: LC3A_28_929 (protein)
# chain: MTKEEIIKHIEEVAKEAIEKGEDAFIEIEIGSETTVEEAKEIMDKLEEEAKKLSEAGLKVSVLIDLDNVSQEVLDTVLDKADEINEKYPLVNVIIALDEE
# B17: LC3A_17_597 (protein)
# chain: MEELKEELEKLLKEAEALIEELKKLDPSAYPELKKKLEEAKKLIKEGKLKEAAEKLEELAREMADIFEELEEKGVEEAAPLYMEAGGIEVEATRLLLKLD
# B18: LC3A_free_39_2254 (protein)
# chain: AAAEVAAILAELRAAAAQASPAVRAAVLALAERLADNPELLRALLELLREALAKGPEAVERLGAWAAEAVARIDAGEDPEAVARELLRLGRADVEIEEID
# B19: LC3A_3_1851 (protein)
# chain: MEEIIEEIKKLLESLGRSEETIEAAMELAELLAERGYKEALEKLLEELKKLKDLPDEILLAMFEDILRALKTEDLSEEEAIELIEEEAEIARNEAEIEEL
# B20: LC3A_free_39_2264 (protein)
# chain: SEEEIKKAEEEVRKLAAKTDPETKEAILRLTEYIKDNAEKLKKLAELLERAIEKGPEAVRILGEFAKEAVERIDAGEPVEEAFEELIKLSEAAIEIEEID
# B21: LC3A_28_698 (protein)
# chain: SRVDEDIERARKIAEEAIAKGEDALIELTIRPDTTAEDVDRILATIRELAEKMSKTGKLYVVVDVESGVDQANIDRIADELDKLMEEIPNLTAVIALDED
# B22: LC3A_28_780 (protein)
# chain: NMLEENIKKALEEAKKAAEKGEEVTLEITIPATATQEDIDKVIEALEEIAELSKNMKSVDVVIDVEAGVDQEYITKIAEKGDELSAKNPKVTVVIALEEE
# B23: LC3A_28_1328 (protein)
# chain: SHIEEELAKARKAAEEALAKGEEALIEVNVTGSTTLEEAEELMEKLKEIAKKYAPKIKVSIVINLSSSVSQEVEDLIAEKAEEIEEELPNVTVIIALDED
# B24: LC3A_128_234 (protein)
# chain: EEKRKLILKILEEARKLAEELSKSEVGKELFEKLIKELDKAIKLLKEGGPLEEVLKELTKADEIADKIIKETDHDRLKLNELSLLIGEAIALVQDMIADE
# B25: LC3A_127_176 (protein)
# chain: ELRELLEKLLEVAEKLSEELSKPDYDEEEIEKLIEEAKRLAKEALKLDPRAQPVLDAAEDIEKEFEKLKKAPEEEKEEIKEHMAMLAESLIIEVLSLLLR
# B26: LC3A_45_1960 (protein)
# chain: MAEAEVYVLVPEEEFDKVVEIIKEEIERINKERGLEASIDEEELKKAREEAKKEGEALVKVTIRSEDMQAALDAADEISDEVEKKSSPKVATIIAYREEP
# B27: LC3A_free_46_2331 (protein)
# chain: VKLEIDVDLLHDDRAAMEAAVADIEAAAKEIAAKYGAEVKIDVTISQDPDGSWFAEIRITVTAPTLETAKAIETDLIDAIEEIADAHGIASIISSEIEEL
# B28: LC3A_28_910 (protein)
# chain: SAVEAAVAAAIAEAEAAAARGEPAVVTLRIDHADVEEARAAARAALTRLKEVALKLKGVTIIVDVPEHAADAVTAVADEVQAELLKKNPSNHIIVAVEEP
# B29: LC3A_45_1927 (protein)
# chain: MYKATVDLLVPKELAEEAYKLIKEKLEELQKKYGPELKVDWETLEKSYEASKDEEEVYFEVKIYHPDKQTALDSAVELEDALQKAFGGKIASIISIEEVP
# Target: MAP1LC3A, Q9H492
# Assay: median log2 fold change of GCK-ALFA target abundance (FLAG IP / Myc IP barcode read proportion) (log2 ratio); each designed protein is fused to an ALFA-tag nanobody in HEK293 cells to bring the named protein to FLAG-tagged glucokinase (GCK); Myc marks an untargeted standard; higher = target protein stabilised (more abundant)
# Settings: target protein: 3xFLAG-MCP-GCK-ALFA reporter; HEK293 landing pad (RPLP)
# In short: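 Binders fused to an ALFA nanobody were recombined as a library into HEK293 landing-pad cells, which were induced with 2 μg mL^−1 doxycycline and then transfected to express a FLAG-tagged target and a Myc-tagged standard. After 48 h, circular RNA barcodes recovered by anti-FLAG and anti-Myc immunoprecipitation of lysates were reverse transcribed, amplified and sequenced. Each binder's target abundance is the median log2 ratio of FLAG to Myc barcode read proportions, from barcodes present at ≥10^−7 in both replicates, binders carrying ≥3 barcodes per replicate, a 10^−6 pseudocount and pooled replicates.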
row,Binder,median log2 fold change
1,B1,-0.128
2,B2,0.225
3,B3,0.479
4,B4,0.0305
5,B5,0.131
6,B6,-0.0519
7,B7,-0.781
8,B8,0.111
9,B9,0.0441
10,B10,0.281
11,B11,0.268
12,B12,0.233
13,B13,-0.0223
14,B14,0.0876
15,B15,0.169
16,B16,-0.171
17,B17,0.249
18,B18,0.3
19,B19,0.179
20,B20,0.246
21,B21,-0.304
22,B22,0.143
23,B23,0.198
24,B24,0.149
25,B25,-0.13
26,B26,0.0892
27,B27,-0.0171
28,B28,-0.0883
29,B29,0.0631
